Here are results for 63 sequences from paper PMC12820563.

The list shows a part of the results. The list includes weakly bound sequences.

In this assay the target is T1, MBP-FoxP3dN (UniProt Q99JB6).
T1 sequence: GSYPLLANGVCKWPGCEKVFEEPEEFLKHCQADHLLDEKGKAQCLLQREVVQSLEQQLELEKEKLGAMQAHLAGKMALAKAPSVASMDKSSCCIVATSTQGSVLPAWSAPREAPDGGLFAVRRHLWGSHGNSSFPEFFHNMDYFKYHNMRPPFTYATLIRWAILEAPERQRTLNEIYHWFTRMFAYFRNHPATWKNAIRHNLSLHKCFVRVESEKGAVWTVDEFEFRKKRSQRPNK
The assay is described as follows: PD-seq (MBP pull-down with sequencing). The settings on record: 20 mM Tris-HCl pH 7.5, 100 mM NaCl, 1.5 mM MgCl2, 0.4 uM protein, 0.1 uM dsDNA library, 30 min, room temperature, amylose pull-down; high values mean tight binding; double strand, one strand shown.
Regarding “GATGATTGTTCTCCCAGCTGATGAATTCTTGGGGTCGAGTAAACAAATTTTCCTAATCTTTCTGTTCAAGCGCCATCTAC”, the binding signal (RPM ratio (pull-down/input)) came out at 0.242. For “GATGATTGTTCTCCCAGCTGATGAATTTACGACCTCGAGTAAACAAATTTTCCTAATCTTTCTGTTCAAGCGCCATCTAC”, the binding signal (RPM ratio (pull-down/input)) was 0.481.

As for “GATGATTGTTCTCCCAGCTGATGAATTGCTTCATTCGAGTAAACAAATTTTCCTAATCTTTCTGTTCAAGCGCCATCTAC”, the binding signal (RPM ratio (pull-down/input)) came to 0.551.

Turning to “GATGATTGTTCTCCCAGCTGATGAATTCTTGAGTTCGAGTAAACAAATTTTCCTAATCTTTCTGTTCAAGCGCCATCTAC”, the binding signal (RPM ratio (pull-down/input)) worked out at 0.421.

As to “GATGATTGTTCTCCCAGCTGATGAATTGGTCCGGTCGAGTAAACAAATTTTCCTAATCTTTCTGTTCAAGCGCCATCTAC”, the binding signal (RPM ratio (pull-down/input)) was determined as 0.214.

For the sequence “GATGATTGTTCTCCCAGCTGATGAATTTAAAAAGTCGAGTAAACAAATTTTCCTAATCTTTCTGTTCAAGCGCCATCTAC”, the binding signal (RPM ratio (pull-down/input)) came to 0.15. For “GATGATTGTTCTCCCAGCTGATGAATTAAGGGCATCGAGTAAACAAATTTTCCTAATCTTTCTGTTCAAGCGCCATCTAC” the value was 0.763. For “GATGATTGTTCTCCCAGCTGATGAATTCAATACTTCGAGTAAACAAATTTTCCTAATCTTTCTGTTCAAGCGCCATCTAC” the value was 0.447. Next, “GATGATTGTTCTCCCAGCTGATGAATTAGCGGATTCGAGTAAACAAATTTTCCTAATCTTTCTGTTCAAGCGCCATCTAC”: 0.301; “GATGATTGTTCTCCCAGCTGATGAATTGTGACATTCGAGTAAACAAATTTTCCTAATCTTTCTGTTCAAGCGCCATCTAC”: 2.74. Turning to “GATGATTGTTCTCCCAGCTGATGAATTCAGGAAGTCGAGTAAACAAATTTTCCTAATCTTTCTGTTCAAGCGCCATCTAC”, the binding signal (RPM ratio (pull-down/input)) was found to be 0.172.

For “GATGATTGTTCTCCCAGCTGATGAATTTAGCTAGTCGAGTAAACAAATTTTCCTAATCTTTCTGTTCAAGCGCCATCTAC”, the binding signal (RPM ratio (pull-down/input)) was found to be 1.18. For “GATGATTGTTCTCCCAGCTGATGAATTAAACTACTCGAGTAAACAAATTTTCCTAATCTTTCTGTTCAAGCGCCATCTAC” the value was 0.437. Next, “GATGATTGTTCTCCCAGCTGATGAATTTCCGCCTTCGAGTAAACAAATTTTCCTAATCTTTCTGTTCAAGCGCCATCTAC”: 3.28; “GATGATTGTTCTCCCAGCTGATGAATTAGTTGAGTCGAGTAAACAAATTTTCCTAATCTTTCTGTTCAAGCGCCATCTAC”: 1.25.

On to “GATGATTGTTCTCCCAGCTGATGAATTCAGAGAGTCGAGTAAACAAATTTTCCTAATCTTTCTGTTCAAGCGCCATCTAC”, for which the binding signal (RPM ratio (pull-down/input)) came to 0.193. For “GATGATTGTTCTCCCAGCTGATGAATTAAACCTGTCGAGTAAACAAATTTTCCTAATCTTTCTGTTCAAGCGCCATCTAC” the value was 0.319; for “GATGATTGTTCTCCCAGCTGATGAATTTTTTACATCGAGTAAACAAATTTTCCTAATCTTTCTGTTCAAGCGCCATCTAC”, 0.25; for “GATGATTGTTCTCCCAGCTGATGAATTAATCGGTTCGAGTAAACAAATTTTCCTAATCTTTCTGTTCAAGCGCCATCTAC”, 0.375. With “GATGATTGTTCTCCCAGCTGATGAATTTCCGACTTCGAGTAAACAAATTTTCCTAATCTTTCTGTTCAAGCGCCATCTAC”, the binding signal (RPM ratio (pull-down/input)) came out at 0.488. Turning to “GATGATTGTTCTCCCAGCTGATGAATTATGTCAGTCGAGTAAACAAATTTTCCTAATCTTTCTGTTCAAGCGCCATCTAC”, the binding signal (RPM ratio (pull-down/input)) worked out at 1.2. As for “GATGATTGTTCTCCCAGCTGATGAATTTCAGGGATCGAGTAAACAAATTTTCCTAATCTTTCTGTTCAAGCGCCATCTAC”, the binding signal (RPM ratio (pull-down/input)) stood at 0.202.

Take “GATGATTGTTCTCCCAGCTGATGAATTGAGTATTTCGAGTAAACAAATTTTCCTAATCTTTCTGTTCAAGCGCCATCTAC”: the binding signal (RPM ratio (pull-down/input)) worked out at 1.95. “GATGATTGTTCTCCCAGCTGATGAATTTACTCGGTCGAGTAAACAAATTTTCCTAATCTTTCTGTTCAAGCGCCATCTAC”: the binding signal (RPM ratio (pull-down/input)) was 0.312. In the case of “GATGATTGTTCTCCCAGCTGATGAATTGTACCCCTCGAGTAAACAAATTTTCCTAATCTTTCTGTTCAAGCGCCATCTAC”, the binding signal (RPM ratio (pull-down/input)) stood at 0.423. Next, “GATGATTGTTCTCCCAGCTGATGAATTAGATTCTTCGAGTAAACAAATTTTCCTAATCTTTCTGTTCAAGCGCCATCTAC”: 0.655. For “GATGATTGTTCTCCCAGCTGATGAATTGTTGACATCGAGTAAACAAATTTTCCTAATCTTTCTGTTCAAGCGCCATCTAC” the value was 5.72. For “GATGATTGTTCTCCCAGCTGATGAATTTCTCACGTCGAGTAAACAAATTTTCCTAATCTTTCTGTTCAAGCGCCATCTAC” the value was 0.298; for “GATGATTGTTCTCCCAGCTGATGAATTTATCAAATCGAGTAAACAAATTTTCCTAATCTTTCTGTTCAAGCGCCATCTAC”, 0.456.

Turning to “GATGATTGTTCTCCCAGCTGATGAATTCGATCGCTCGAGTAAACAAATTTTCCTAATCTTTCTGTTCAAGCGCCATCTAC”, the binding signal (RPM ratio (pull-down/input)) was 0.339. Next, “GATGATTGTTCTCCCAGCTGATGAATTATCGTCTTCGAGTAAACAAATTTTCCTAATCTTTCTGTTCAAGCGCCATCTAC”: 0.527. Next, “GATGATTGTTCTCCCAGCTGATGAATTGATTCGGTCGAGTAAACAAATTTTCCTAATCTTTCTGTTCAAGCGCCATCTAC”: 0.336; “GATGATTGTTCTCCCAGCTGATGAATTCTTAGCGTCGAGTAAACAAATTTTCCTAATCTTTCTGTTCAAGCGCCATCTAC”: 0.407; “GATGATTGTTCTCCCAGCTGATGAATTTGACACTTCGAGTAAACAAATTTTCCTAATCTTTCTGTTCAAGCGCCATCTAC”: 1.55.

Take “GATGATTGTTCTCCCAGCTGATGAATTACGAGGCTCGAGTAAACAAATTTTCCTAATCTTTCTGTTCAAGCGCCATCTAC”: the binding signal (RPM ratio (pull-down/input)) amounted to 0.562. For “GATGATTGTTCTCCCAGCTGATGAATTTTTCCCGTCGAGTAAACAAATTTTCCTAATCTTTCTGTTCAAGCGCCATCTAC” the value was 0.171; for “GATGATTGTTCTCCCAGCTGATGAATTATGAAAGTCGAGTAAACAAATTTTCCTAATCTTTCTGTTCAAGCGCCATCTAC”, 0.265; for “GATGATTGTTCTCCCAGCTGATGAATTGGTCCCATCGAGTAAACAAATTTTCCTAATCTTTCTGTTCAAGCGCCATCTAC”, 0.435. In the case of “GATGATTGTTCTCCCAGCTGATGAATTCGCTAAATCGAGTAAACAAATTTTCCTAATCTTTCTGTTCAAGCGCCATCTAC”, the binding signal (RPM ratio (pull-down/input)) turned out to be 0.218. For “GATGATTGTTCTCCCAGCTGATGAATTGAATCTCTCGAGTAAACAAATTTTCCTAATCTTTCTGTTCAAGCGCCATCTAC” the value was 0.429. As to “GATGATTGTTCTCCCAGCTGATGAATTAATTGACTCGAGTAAACAAATTTTCCTAATCTTTCTGTTCAAGCGCCATCTAC”, the binding signal (RPM ratio (pull-down/input)) was 2.9. For “GATGATTGTTCTCCCAGCTGATGAATTAAACCGGTCGAGTAAACAAATTTTCCTAATCTTTCTGTTCAAGCGCCATCTAC” the value was 0.248. “GATGATTGTTCTCCCAGCTGATGAATTCTGATGTTCGAGTAAACAAATTTTCCTAATCTTTCTGTTCAAGCGCCATCTAC”: the binding signal (RPM ratio (pull-down/input)) is 2.93.

For the sequence “GATGATTGTTCTCCCAGCTGATGAATTCGTGCACTCGAGTAAACAAATTTTCCTAATCTTTCTGTTCAAGCGCCATCTAC”, the binding signal (RPM ratio (pull-down/input)) turned out to be 0.773. Next, “GATGATTGTTCTCCCAGCTGATGAATTGGCTTTCTCGAGTAAACAAATTTTCCTAATCTTTCTGTTCAAGCGCCATCTAC”: 1.76. In the case of “GATGATTGTTCTCCCAGCTGATGAATTTTCTTTTTCGAGTAAACAAATTTTCCTAATCTTTCTGTTCAAGCGCCATCTAC”, the binding signal (RPM ratio (pull-down/input)) was 0.645.

Consider “GATGATTGTTCTCCCAGCTGATGAATTACTAAGGTCGAGTAAACAAATTTTCCTAATCTTTCTGTTCAAGCGCCATCTAC”, for which the binding signal (RPM ratio (pull-down/input)) was 0.254.

For the sequence “GATGATTGTTCTCCCAGCTGATGAATTATGTACGTCGAGTAAACAAATTTTCCTAATCTTTCTGTTCAAGCGCCATCTAC”, the binding signal (RPM ratio (pull-down/input)) was found to be 1.34. Next, “GATGATTGTTCTCCCAGCTGATGAATTGGCCGGCTCGAGTAAACAAATTTTCCTAATCTTTCTGTTCAAGCGCCATCTAC”: 0.201; “GATGATTGTTCTCCCAGCTGATGAATTACCAGTATCGAGTAAACAAATTTTCCTAATCTTTCTGTTCAAGCGCCATCTAC”: 0.478; “GATGATTGTTCTCCCAGCTGATGAATTCGACCGCTCGAGTAAACAAATTTTCCTAATCTTTCTGTTCAAGCGCCATCTAC”: 0.259. For “GATGATTGTTCTCCCAGCTGATGAATTGCCAACCTCGAGTAAACAAATTTTCCTAATCTTTCTGTTCAAGCGCCATCTAC” the value was 0.476. Next, “GATGATTGTTCTCCCAGCTGATGAATTTGGCCAATCGAGTAAACAAATTTTCCTAATCTTTCTGTTCAAGCGCCATCTAC”: 0.65; “GATGATTGTTCTCCCAGCTGATGAATTTCTGAGGTCGAGTAAACAAATTTTCCTAATCTTTCTGTTCAAGCGCCATCTAC”: 0.165. Consider “GATGATTGTTCTCCCAGCTGATGAATTTCATCTGTCGAGTAAACAAATTTTCCTAATCTTTCTGTTCAAGCGCCATCTAC”, for which the binding signal (RPM ratio (pull-down/input)) was 0.411. Next, “GATGATTGTTCTCCCAGCTGATGAATTTTTTGGATCGAGTAAACAAATTTTCCTAATCTTTCTGTTCAAGCGCCATCTAC”: 0.192; “GATGATTGTTCTCCCAGCTGATGAATTACCTTGTTCGAGTAAACAAATTTTCCTAATCTTTCTGTTCAAGCGCCATCTAC”: 0.403; “GATGATTGTTCTCCCAGCTGATGAATTGTAAACATCGAGTAAACAAATTTTCCTAATCTTTCTGTTCAAGCGCCATCTAC”: 5.2. For “GATGATTGTTCTCCCAGCTGATGAATTGTACAAGTCGAGTAAACAAATTTTCCTAATCTTTCTGTTCAAGCGCCATCTAC” the value was 0.305; for “GATGATTGTTCTCCCAGCTGATGAATTACTTAGTTCGAGTAAACAAATTTTCCTAATCTTTCTGTTCAAGCGCCATCTAC”, 0.432.

With “GATGATTGTTCTCCCAGCTGATGAATTCGGTCTATCGAGTAAACAAATTTTCCTAATCTTTCTGTTCAAGCGCCATCTAC”, the binding signal (RPM ratio (pull-down/input)) is 0.588. As for “GATGATTGTTCTCCCAGCTGATGAATTTCGAACCTCGAGTAAACAAATTTTCCTAATCTTTCTGTTCAAGCGCCATCTAC”, the binding signal (RPM ratio (pull-down/input)) worked out at 0.301. Next, “GATGATTGTTCTCCCAGCTGATGAATTATGCACATCGAGTAAACAAATTTTCCTAATCTTTCTGTTCAAGCGCCATCTAC”: 2.07.
